Paper PMC6212790
The other results are listed elsewhere or left out. At the low end of the ranking, values are background and their order means little.

Target: T1, GST-Rok-C97-191 (UniProt O34857)
T1 sequence: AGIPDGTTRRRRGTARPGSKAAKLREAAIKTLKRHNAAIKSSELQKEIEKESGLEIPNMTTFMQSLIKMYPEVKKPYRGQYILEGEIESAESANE
Experiment: protein binding microarray;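 note: rank score from −0.5 (least bound) to 0.5 (best bound)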
Settings: Rok is a gene silencer of Bacillus subtilis; high values mean tight binding; most listed sequences are background and not binding sites; double strand, one strand shown

Sequence	binding signal [E-score]
CTGTAAAC	0.0537
CCCGGATC	-0.177
GAGCAGCC	-0.216
GCTAAAAA	0.121
ATATAACC	0.233
AGCGATCC	-0.165
CAAAGCTC	-0.152
CAACCAGG	-0.166
CAAATGTA	0.269
GGTACCAA	0.245
GTGGTTGA	0.111
CATTGCCC	-0.163
GGGAGTAC	-0.213
CTGCGAGA	0.0174
ACCGATAT	0.312
AGTGGCAG	-0.208
GAGGGTAA	-0.0477
CCAGAAGA	-0.149
CTCTCCCA	-0.153
CAGGGGGG	-0.376
CATGTTGC	-0.00843
CAATATTC	0.186
CCACTAAA	0.0373
CAGACAGC	-0.123
CTTCACGC	-0.0928

Sequence	binding signal [E-score]
GTTTCCGA	0.0766
CCTTTCCA	-0.208
AAGACTCA	-0.19
AGGTGATA	0.195
CCAGTTAC	0.263
AACCAGGA	-0.147
CTGGGGCA	-0.313
ATAGGAAG	0.0169
CAATTACC	0.0477
TTGGGAAA	0.0122
TATAAGGA	0.102
CGTGGTAG	0.206
GTGTATGA	0.183
GCGTGGCA	-0.303
ATGCCCGG	-0.266
ATGTCAAA	0.0176
AGGACCGC	-0.272
CGTTCTAG	0.22
ATCCCAAT	-0.0813
ACACTGCT	0.127
CGTACATC	0.252
ACTAGGCC	-0.168
ATCGAGGC	-0.159
CGGCTCTC	-0.276
ACTCTTCG	0.00879

Sequence	binding signal [E-score]
GAGGAGGC	-0.32
GCCGACAA	-0.151
CGATCATA	0.249
ACCAGAAC	-0.112
AAAAGACT	0.0531
GGGCAACC	-0.335
CTGACAAG	-0.143
GCTGGGCC	-0.263
GCGGGGCC	-0.387
ACACACAC	0.169
TACCGCAA	0.0594
GCTGCAAA	0.0301
CAGCCACG	-0.162
ACGAGAAA	-0.086
AAATGATG	-0.0075
AGCATTGA	0.0146
AGTTGTGA	0.0563
ACAGCGCC	-0.311
CAGGCCCC	-0.282
AAATACAG	0.123
ACTGCAGA	0.00119
ACCAAATC	0.11
AATCCTCT	0.00921
CTGTGTTC	-0.0847
ATAATTAC	0.332

Sequence	binding signal [E-score]
CGCCTACG	-0.0439
CAACTCCC	-0.0312
CAGCATCA	0.0456
ATAAGGAA	0.0521
ATGTACAC	0.238
CTCCACTA	0.107
CGGACTTC	-0.162
CCAGTAAC	-0.0778
AGTGGCCA	-0.188
CTCGGTAC	0.111
ACGGCAGA	-0.0257
ACGATTCG	-0.11
ATCACGAG	-0.0497
ATCAAGAA	-0.0571
AAAATCTT	-0.0838
CGGTAGTC	0.174
GTTTTTTA	0.15
GGAGCCTA	-0.33
CTGGTTCA	-0.101
AGGCTTCA	-0.0481
CTGAGAAA	0.0203
AGGGCCGC	-0.335
GTGACAAA	0.0673
AAAGCAAC	-0.0343
CCACAATA	0.2

Sequence	binding signal [E-score]
TACACGAA	0.0959
CCAAAAGC	-0.0996
CTCCTATC	0.00619
AATCGATA	0.214
GAGAGAGA	-0.111
AGGCTTAT	0.0397
AGAACCCC	-0.293
GAAGAACA	-0.0668
AGAAGCAA	0.194
ATGCCTTG	0.0183
CGGCTGTA	-0.047
GCCAGCTA	0.0405
CCCGTACA	-0.114
GAGGGAAA	-0.161
ACCGACTA	0.0663
GAAATCTC	0.209
AGTCGGAT	-0.085
ACTTTACC	0.094
CGCTCGAG	-0.0761
GCAGGACC	-0.239
CGTTGTTA	0.102
GAAATGCA	-0.0957
GGGCCGGA	-0.259
GGTACGCA	-0.136
AAGACGAT	-0.226

Sequence	binding signal [E-score]
AGCTCATA	0.0471
AGGATTCA	-0.0646
GAGCTCAA	-0.0643
ACCACACT	-0.0178
CCGCACTC	-0.333
GGAATCTA	0.339
GCGCTGCA	-0.212
CCATTTGC	-0.0125
AGTCATCG	-0.0441
AGATGGTC	0.089
AGCAGGTA	0.00328
AAGTGAGC	-0.0867
ACGCCGTG	-0.131
GTTTACCA	-0.0712
AGTTCAAC	0.0835
GAAGGTGA	-0.134
GGCGTCAA	-0.0906
AGGATAAG	0.161
AAATTTCA	0.156
GAGTGTGC	-0.219
GATTTCGC	0.0941
AACGACCA	-0.104
ACGCTGCC	-0.2
GACTCATA	-0.063
AGTATAGG	0.315

Sequence	binding signal [E-score]
AACGCCGC	-0.261
GGTCTTTA	0.0351
CACGCTTC	-0.241
GCGAATGA	-0.144
AGCGACGA	0.0827
ACACCAGT	-0.109
CCGAACGC	-0.0972
CAGTTGGG	-0.107
GTTTGTGA	0.11
CAGTGCCC	-0.0787
CGTTCGGC	-0.0694
ACCGCAAT	0.0391
CAAGCTTA	-0.022
AGCGTGAT	0.0184
AAACTACT	0.464
CGTGGGCC	-0.272
GATGGAAC	-0.111
CGTTATAC	0.257
GTTGCGAA	-0.15
CATATATC	0.279
AGCTGCCC	-0.165
AGTTTCCG	0.112
ACATTATG	0.0538
AACGATCG	-0.132
CTAGCGCA	0.195

Sequence	binding signal [E-score]
AGAGGTTA	0.0179
CCAGGAAG	-0.0444
CGTAAGTC	-0.00837
TAAGTACA	0.35
CAGCTGAA	-0.13
CTCAACTA	0.146
TTAAACAA	0.065
CAAATATG	0.161
AAATTATT	0.296
ATAGTTGC	0.306
AGTACGCC	-0.0846
CCTATCCC	-0.131
AAGAAAAC	-0.235
TAGCCATA	0.124
AGCGACGC	-0.221
GAAACCGC	0.00507
CCGGAAAG	-0.101
ACGTTCAA	-0.0251
ATCAGATA	0.133
GCGGTAGC	0.0462
AGGTGGGC	-0.3
AATCATCG	-0.145
CTTGATAC	0.115
CGTTAACA	0.021
AACTACAT	0.364

Sequence	binding signal [E-score]
CTACGCTA	0.244
GTACGGCA	-0.0127
CAGCACAA	-0.0318
AATGCAAT	0.0863
ATATGGAA	0.208
ATTTGCCG	0.00153
CTCAGCGC	0.0797
CTTCGATC	-0.16
CCGAGAGG	-0.212
ATATATTG	0.419
AGAATCCA	-0.0644
CTATACGC	0.0808
GCTGAGTA	-0.0511
GGTATACC	0.207
CCGAGCGA	-0.239
CTGGACCC	-0.377
GACTGTGA	-0.149
CAAATAGA	0.16
ACGATCAC	-0.239
CATGCGAA	-0.0749
AGGCATTA	0.153
AGACTCTC	-0.185
GTTAGCAA	0.187
ACGCTTGC	-0.1
CCTAATTC	0.115

Sequence	binding signal [E-score]
CAGGATGC	-0.064
CGCAGGAC	-0.301
CCATAAGG	-0.214
GGATGGAC	-0.187
CATGCTGC	-0.187
CCGTGGGA	-0.319
AGAACGAC	-0.0999
AGAAGCTA	0.0771
ATGCCTGG	-0.108
AGATATGA	0.175
ACTTATTG	0.0793
TGGTAAAA	0.337
AGCCTCGG	-0.367
ACACCTCC	-0.0446
GGCGTTAC	-0.0381
GTTGTGCA	0.168
AGCGCATC	-0.0204
GGGGTATA	0.01
AAGAATCC	0.0635
GACATCCA	-0.0705
ACCACAAT	0.0536
CGAAAAAC	-0.0633
AAGCTAAT	0.254
ATGAAACC	-0.207
CATCCAAG	-0.0858

Sequence	binding signal [E-score]
AAGCGAGG	-0.311
ACGACAGT	0.0839
GAATCTTA	0.0684
ATACGCTA	0.103
ATCGGCGA	0.0338
TAGGACAA	0.146
CATTCTGG	-0.0917
AATAGAGT	0.0487
CTGGACTC	-0.291
AAGGATTC	-0.00702
AATGTCTC	0.0717
AGTCCGGC	-0.179
GGTACAGA	-0.0072
GTCAGGAC	-0.147
ATGAGACG	-0.295
CTCGCGGA	-0.148
AGCCTATG	-0.235
AACCTCGG	-0.032
CATTATGC	0.0911
TCTACAGA	0.179
ATCCACAC	-0.0273
CATTCATA	0.181
ATAGAACA	0.282
ACATTCTC	0.0633
AAAACAGG	0.146

Sequence	binding signal [E-score]
ACCCCTAT	-0.0807
CAAGTGCA	0.000567
ACACCCAT	-0.107
CCCCAGTA	0.021
CGTCTGCA	-0.0581
AGGCGACG	-0.051
AGGCTAGA	-0.0549
TGGGCACA	-0.127
AGCGTCTC	-0.00989
CTCCGCAG	-0.295
TAGCGGGA	-0.101
ACGACAAG	-0.022
GAGTATGA	0.056
GTAGAAAA	0.384
TACTTAGA	0.298
AGGATGGG	-0.087
CGGGGTTA	-0.251
GTGACATA	0.0259
TCGCTAAA	0.177
GAAGAACC	0.0595
ACATAGGA	0.266
AACGTATG	0.128
CTTGGCAA	0.0183
ATGAAGTC	-0.0201
CAACTACG	0.113

Sequence	binding signal [E-score]
AACAACTT	0.144
ACGAACCC	-0.114
CGGATCTA	0.0459
TCAGCCCA	-0.191
ACTAAGCA	0.0291
AACGCGTA	0.0641
AAGTTGAA	-0.0457
CGCACGAC	-0.102
CATCATAC	0.17
GAGGGACA	-0.254
AAGTAGAT	0.407
ATGGCCAG	-0.0593
TACTATAA	0.408
TCCCGGCA	-0.0806
CAAGGGGC	-0.366
AATGTCAC	0.16
AATGACCG	-0.0146
CATTGGAG	-0.128
GACCGTTA	0.0141
TACCATAA	0.354
GGCTGAAC	-0.186
ACTCTGAC	-0.0474
CGTAGACG	-0.165
TCATGAAA	0.0251
AGCGTTGC	-0.0489

Sequence	binding signal [E-score]
ACTTTGGC	-0.0258
CATACGAG	0.116
AAAACCTG	0.0387
GGTCCTCA	-0.158
AGCTAGAT	0.152
AAAATCGC	0.0684
GCGCCTAA	-0.22
CATTACTC	0.131
CAACGTAC	0.039
TACCCTAA	-0.0802
CCGCGACC	-0.277
ACTGGACT	-0.138
CGACTCAG	-0.113
ATATTATC	0.245
GAGTTTAC	0.174
GCAGCACC	-0.161
CAGTGATG	-0.175
ATGATACC	0.178
AGGGCGGG	-0.287
